Binding signal (normalized occupancy) data for 172 sequences are collected here from PMC4242493.

This is one part of the list. The list includes weakly bound sequences.

This experiment deals with MaxL homodimer (UniProt P61244). Kind of experiment: universal protein-binding microarray (PBM). Conditions: PBS-based mixture, 10 nM His-tagged protein dimer, 2% milk, 200 ng/uL BSA, 50 ng/uL salmon testes DNA, 0.02% TX-100; detection with Alexa 488 anti-His …; high values mean tight binding; most listed sequences are background and not binding sites; double strand, one strand shown.
Sequence of UniProt P61244 (P61244 whole entry): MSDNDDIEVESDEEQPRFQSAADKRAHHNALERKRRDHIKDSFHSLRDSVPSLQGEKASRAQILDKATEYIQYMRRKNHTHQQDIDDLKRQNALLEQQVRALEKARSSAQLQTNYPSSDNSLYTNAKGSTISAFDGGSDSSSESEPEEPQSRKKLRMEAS
As to ATCTCTTG, the binding signal (normalized occupancy) is 0.074.

For GAGAACAA, the binding signal (normalized occupancy) is 0.0772.

CGTGGAAA: the binding signal (normalized occupancy) was found to be 0.0938.

On to AGCCGACA, for which the binding signal (normalized occupancy) worked out at 0.0757.

Consider GTTAAGGA, for which the binding signal (normalized occupancy) came to 0.0723.

ACCATATC: the binding signal (normalized occupancy) amounted to 0.0845.

For CAGTCCCC, the binding signal (normalized occupancy) was found to be 0.0743.

As for CTGACGTC, the binding signal (normalized occupancy) came out at 0.071.

For the sequence CAACAAGC, the binding signal (normalized occupancy) is 0.078.

As for AGATCGTG, the binding signal (normalized occupancy) worked out at 0.0794.

Turning to GAGAGCCC, the binding signal (normalized occupancy) is 0.07.

Turning to CACATAGC, the binding signal (normalized occupancy) turned out to be 0.08.

AACAAGTC: the binding signal (normalized occupancy) was 0.0745.

GATGCAAC: the binding signal (normalized occupancy) stood at 0.0749.

In the case of CCAGACAG, the binding signal (normalized occupancy) was determined as 0.07.

Regarding CATCTATA, the binding signal (normalized occupancy) amounted to 0.0845.

Take ATTCTTGA: the binding signal (normalized occupancy) was 0.0788.

For AAGGAAGG, the binding signal (normalized occupancy) was found to be 0.0748.

With CGATATGA, the binding signal (normalized occupancy) worked out at 0.0772.

With ACCAGTGC, the binding signal (normalized occupancy) came out at 0.0699.

On to CTCTCGCC, for which the binding signal (normalized occupancy) was found to be 0.0733.

As to CTGTACAC, the binding signal (normalized occupancy) was 0.082.

On to CACGTTAC, for which the binding signal (normalized occupancy) is 0.115.

For the sequence CAACATAG, the binding signal (normalized occupancy) amounted to 0.0774.

Take ACGCCACA: the binding signal (normalized occupancy) was determined as 0.0778.

On to ACCTATCC, for which the binding signal (normalized occupancy) turned out to be 0.0801.

Take ATTCTATA: the binding signal (normalized occupancy) worked out at 0.0851.

As to ACCGAAGG, the binding signal (normalized occupancy) amounted to 0.0658.

Regarding GCCAGCCC, the binding signal (normalized occupancy) was 0.0659.

On to ATCCGAGA, for which the binding signal (normalized occupancy) was found to be 0.0742.

For AAGATGCT, the binding signal (normalized occupancy) was 0.0778.

With GATGATAC, the binding signal (normalized occupancy) worked out at 0.0803.

On to TAACAAAA, for which the binding signal (normalized occupancy) worked out at 0.0694.

As for ACTGACAG, the binding signal (normalized occupancy) was found to be 0.0704.

Consider CCAAGTCC, for which the binding signal (normalized occupancy) came to 0.0675.

For CATAAACC, the binding signal (normalized occupancy) came out at 0.0814.

On to CATGCCGG, for which the binding signal (normalized occupancy) is 0.0917.

On to AGTTTTTG, for which the binding signal (normalized occupancy) was found to be 0.0729.

CCGCCTCC: the binding signal (normalized occupancy) amounted to 0.0704.

ACCGAACT: the binding signal (normalized occupancy) came to 0.0672.

With AGCGCACT, the binding signal (normalized occupancy) turned out to be 0.07.

In the case of GGGACCAA, the binding signal (normalized occupancy) turned out to be 0.0724.

Take ATGTAATC: the binding signal (normalized occupancy) was found to be 0.0877.

As to TAAGACTA, the binding signal (normalized occupancy) came to 0.0761.

As for CACGAGAA, the binding signal (normalized occupancy) stood at 0.0893.

CCACCGGC: the binding signal (normalized occupancy) amounted to 0.0644.

As for CACTAACA, the binding signal (normalized occupancy) worked out at 0.0775.

As to CCCGGCAC, the binding signal (normalized occupancy) amounted to 0.0831.

In the case of TAGTTACA, the binding signal (normalized occupancy) is 0.077.

Take GACCGATC: the binding signal (normalized occupancy) was found to be 0.0744.

As to CCAGAGAG, the binding signal (normalized occupancy) is 0.0693.

For the sequence GACGTTAC, the binding signal (normalized occupancy) was found to be 0.0746.

For the sequence GATGTACC, the binding signal (normalized occupancy) is 0.0806.

As for TGTTCTAA, the binding signal (normalized occupancy) came out at 0.0775.

Consider CACTCTGA, for which the binding signal (normalized occupancy) is 0.0787.

For CGTCTTAG, the binding signal (normalized occupancy) was found to be 0.0726.

Turning to ATTTAACG, the binding signal (normalized occupancy) is 0.0809.

CCGCGAAC: the binding signal (normalized occupancy) amounted to 0.0706.

Consider TAGCGACA, for which the binding signal (normalized occupancy) came out at 0.0738.

For AACATCCT, the binding signal (normalized occupancy) amounted to 0.0783.

With AGTTCTTC, the binding signal (normalized occupancy) was found to be 0.0709.

On to ATTTATTG, for which the binding signal (normalized occupancy) was found to be 0.0781.

With TCGCAACA, the binding signal (normalized occupancy) turned out to be 0.0723.

Consider CTGCGGAA, for which the binding signal (normalized occupancy) came out at 0.0656.

As for GCTAGCGA, the binding signal (normalized occupancy) turned out to be 0.0671.

GTAGAGAC: the binding signal (normalized occupancy) is 0.0704.

As for GTATAGTA, the binding signal (normalized occupancy) was 0.0791.

With AGGTTCAT, the binding signal (normalized occupancy) amounted to 0.0782.

On to AGTGGATC, for which the binding signal (normalized occupancy) was 0.0725.

In the case of GGGATATA, the binding signal (normalized occupancy) amounted to 0.0829.

On to ACAGTCTC, for which the binding signal (normalized occupancy) was 0.0733.

For ACCCGGTA, the binding signal (normalized occupancy) is 0.0776.

Turning to TTTACAAA, the binding signal (normalized occupancy) was 0.0785.

As for CACGATTC, the binding signal (normalized occupancy) was 0.0796.

For the sequence AGACAATG, the binding signal (normalized occupancy) came to 0.0826.

As to AGGTAGTG, the binding signal (normalized occupancy) worked out at 0.0808.

On to GATAGCTA, for which the binding signal (normalized occupancy) was 0.0735.

GGGAGTTA: the binding signal (normalized occupancy) was 0.0782.

As for AGGCGCTG, the binding signal (normalized occupancy) stood at 0.0702.

As for AGGCCCGC, the binding signal (normalized occupancy) came out at 0.0714.

On to AGACGTTG, for which the binding signal (normalized occupancy) was found to be 0.0682.

As to GGGTCCCA, the binding signal (normalized occupancy) turned out to be 0.0727.

ATTAAGAG: the binding signal (normalized occupancy) stood at 0.0712.

For AAGCAAAG, the binding signal (normalized occupancy) was 0.0696.

In the case of GTTATTCA, the binding signal (normalized occupancy) was 0.0786.

For CAAAACAA, the binding signal (normalized occupancy) turned out to be 0.0735.

Turning to ACATGCGC, the binding signal (normalized occupancy) was 0.109.

Consider ATCTCGTA, for which the binding signal (normalized occupancy) amounted to 0.0765.

On to CACAGGGA, for which the binding signal (normalized occupancy) amounted to 0.0741.

Turning to AACGTCCG, the binding signal (normalized occupancy) amounted to 0.0721.

Turning to GATGTTGC, the binding signal (normalized occupancy) came out at 0.0781.

For GATTCCCA, the binding signal (normalized occupancy) stood at 0.0755.

With CAAAACAG, the binding signal (normalized occupancy) is 0.0731.

For TGCAGGCA, the binding signal (normalized occupancy) worked out at 0.0732.

TAACGTGA: the binding signal (normalized occupancy) is 0.0935.

Regarding CATGTTAG, the binding signal (normalized occupancy) came to 0.0923.

In the case of CCTTACAG, the binding signal (normalized occupancy) stood at 0.0695.

Take AAGTTTCG: the binding signal (normalized occupancy) is 0.0705.

For the sequence ATGAGGCA, the binding signal (normalized occupancy) came out at 0.0899.

As for ACTGCCAG, the binding signal (normalized occupancy) was found to be 0.0747.

Take CCGCGTAG: the binding signal (normalized occupancy) is 0.0711.

With CAAGTTAG, the binding signal (normalized occupancy) was determined as 0.0743.

Regarding AATACTGC, the binding signal (normalized occupancy) worked out at 0.0763.

In the case of AAGTGACG, the binding signal (normalized occupancy) is 0.0707.

Regarding AGACAAGC, the binding signal (normalized occupancy) was found to be 0.0716.

On to AACGCCCC, for which the binding signal (normalized occupancy) came out at 0.0758.

TCCAATCA: the binding signal (normalized occupancy) is 0.0714.

Take AGTTCGGA: the binding signal (normalized occupancy) was found to be 0.0649.

As for AGACTAAG, the binding signal (normalized occupancy) was 0.0726.

For the sequence AACTTTTG, the binding signal (normalized occupancy) came out at 0.074.

Take AGGCGCCT: the binding signal (normalized occupancy) turned out to be 0.0626.

AACCAGGG: the binding signal (normalized occupancy) was 0.0675.

For the sequence CGAGTGTC, the binding signal (normalized occupancy) came out at 0.0736.

For the sequence ATACGGGA, the binding signal (normalized occupancy) turned out to be 0.0757.

TAGACCCA: the binding signal (normalized occupancy) turned out to be 0.0764.

On to CAGGCTCC, for which the binding signal (normalized occupancy) was 0.0681.

As to ACCCTCTG, the binding signal (normalized occupancy) worked out at 0.0729.

Consider AACTTGAC, for which the binding signal (normalized occupancy) is 0.0743.

Take GCAAAGAA: the binding signal (normalized occupancy) was found to be 0.0727.

Regarding CGGGGATC, the binding signal (normalized occupancy) turned out to be 0.0731.

Turning to CGACGATC, the binding signal (normalized occupancy) was 0.0747.

As for CACACCGA, the binding signal (normalized occupancy) came to 0.0782.

As to ACTCGTTA, the binding signal (normalized occupancy) was 0.0776.

On to AGCCAACT, for which the binding signal (normalized occupancy) worked out at 0.0681.

As for GAACAACA, the binding signal (normalized occupancy) amounted to 0.0723.

In the case of GCCGGAGA, the binding signal (normalized occupancy) came to 0.0691.

Take CAGACGAA: the binding signal (normalized occupancy) was 0.0711.

GCATTTCA: the binding signal (normalized occupancy) came out at 0.0785.

In the case of CCGCAAAC, the binding signal (normalized occupancy) worked out at 0.0727.

As for CCGTAACC, the binding signal (normalized occupancy) amounted to 0.0723.

In the case of AAGCTGCT, the binding signal (normalized occupancy) worked out at 0.0725.

Regarding TGCTATAA, the binding signal (normalized occupancy) turned out to be 0.0838.

As to TGACCCCA, the binding signal (normalized occupancy) is 0.0915.

As for CTACAGAG, the binding signal (normalized occupancy) was 0.0735.

On to ATGGGATA, for which the binding signal (normalized occupancy) came out at 0.0854.

As for CAGGCATC, the binding signal (normalized occupancy) was 0.0725.

As for CTAGTGAG, the binding signal (normalized occupancy) came to 0.0776.

In the case of ATCGAGGG, the binding signal (normalized occupancy) stood at 0.0773.

In the case of GAGATATA, the binding signal (normalized occupancy) came out at 0.0807.

In the case of AATTTAAC, the binding signal (normalized occupancy) came out at 0.0721.

CCATCATA: the binding signal (normalized occupancy) amounted to 0.0853.

As to CAAAACCG, the binding signal (normalized occupancy) is 0.0676.

AAATAGTC: the binding signal (normalized occupancy) is 0.0779.

For AGTGCTAC, the binding signal (normalized occupancy) amounted to 0.0738.

In the case of ATTCCCCC, the binding signal (normalized occupancy) turned out to be 0.081.

Take GCCCGGTA: the binding signal (normalized occupancy) stood at 0.0697.

Regarding ACTCGCCA, the binding signal (normalized occupancy) came to 0.081.

For the sequence AAGATGTA, the binding signal (normalized occupancy) was 0.0786.

Turning to GTAGGATA, the binding signal (normalized occupancy) came to 0.0757.

In the case of TGTGCACA, the binding signal (normalized occupancy) was determined as 0.0902.

Turning to CCTTGTAA, the binding signal (normalized occupancy) was 0.0766.

Consider GCCTTGGA, for which the binding signal (normalized occupancy) amounted to 0.0725.

For AATGGATA, the binding signal (normalized occupancy) was 0.0801.

Consider CGAGTTCA, for which the binding signal (normalized occupancy) stood at 0.0827.

In the case of GCGACCTA, the binding signal (normalized occupancy) turned out to be 0.0698.

For GGTATGCA, the binding signal (normalized occupancy) turned out to be 0.0844.

CACGTCTA: the binding signal (normalized occupancy) worked out at 0.0825.

On to GGAAACGA, for which the binding signal (normalized occupancy) is 0.0719.

Consider AGTTCGAA, for which the binding signal (normalized occupancy) is 0.0747.

On to CGTGCGCA, for which the binding signal (normalized occupancy) was 0.0967.

With AGGTCGAA, the binding signal (normalized occupancy) is 0.0689.

For the sequence CTAGGCTA, the binding signal (normalized occupancy) came out at 0.0664.

Regarding ATAAGGTG, the binding signal (normalized occupancy) was 0.0767.

As for AATTTTCG, the binding signal (normalized occupancy) was determined as 0.0716.

Consider CAGGTCAG, for which the binding signal (normalized occupancy) turned out to be 0.0752.

Turning to TACATTCA, the binding signal (normalized occupancy) is 0.085.

CAGTTAGC: the binding signal (normalized occupancy) worked out at 0.0694.

With AAGCTAGT, the binding signal (normalized occupancy) is 0.0699.

As to AGATCACG, the binding signal (normalized occupancy) was 0.0896.

In the case of GCGCGATA, the binding signal (normalized occupancy) stood at 0.0728.

On to AGACTGCA, for which the binding signal (normalized occupancy) was determined as 0.0719.

Turning to ACCCCGCA, the binding signal (normalized occupancy) came to 0.0816.
